# This is one part of the list. At the low end of the ranking, values are background and their order means little. Measured with an extract: partners may take part in the binding.
# Target: T1, HNF4alpha2 (COS-7 nuclear extract) (UniProt P41235)
# T1 sequence: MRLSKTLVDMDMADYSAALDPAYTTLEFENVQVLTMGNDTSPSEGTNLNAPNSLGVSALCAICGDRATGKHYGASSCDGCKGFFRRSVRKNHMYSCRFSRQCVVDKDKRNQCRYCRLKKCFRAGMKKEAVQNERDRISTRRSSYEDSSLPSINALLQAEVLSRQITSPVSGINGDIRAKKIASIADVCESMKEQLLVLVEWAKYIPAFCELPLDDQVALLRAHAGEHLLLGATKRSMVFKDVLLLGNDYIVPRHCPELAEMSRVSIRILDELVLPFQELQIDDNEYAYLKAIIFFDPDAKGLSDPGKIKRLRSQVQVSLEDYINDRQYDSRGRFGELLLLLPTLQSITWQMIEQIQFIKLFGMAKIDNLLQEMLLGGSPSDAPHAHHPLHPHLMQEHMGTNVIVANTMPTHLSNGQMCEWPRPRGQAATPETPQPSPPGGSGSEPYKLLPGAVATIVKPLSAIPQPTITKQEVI
# Experiment: protein-binding microarray
# Conditions: COS-7 nuclear extract on double-stranded Agilent 4x180k PBM; binding buffer, salt, pH and temperature not given; high values mean tight binding; double strand, one strand shown; sequences stand for … in …GCCTAGGGAGATTAGAGTATCGGTCGA
row,Sequence,binding signal (log2 normalized intensity)
1,TCATCACTTAGGATATTCCAAGGGGTTAGA,1
2,CCAAGCCCCAAAAACTTGGACTCTATAGCC,3.44
3,CCTTGCCCCACCCCCCACCCCAGAAGTATG,6.2
4,CCAATTATTGCGAGTTTAGGAGGGTTCCTG,0.274
5,CCAAAGGTCATCTGTCACTCTAGATAAAGA,1.51
6,TATGCCACAGGGCAAGACACCAAAGGTCAC,4.33
7,CCAGTGGCCCCTGAGCACTGTCTCAGGGTC,1.27
8,TTTGGGGAAGGATAAAATGAAATCGCCTGA,-0.952
9,ATCCTTCAACAATTCTATGAGTAGGTACAA,1.06
10,CTTAAAGTGTAAATATTTGAGGACACAAAG,1.18
11,CAGCAAAAATAGCCAAAATAAAGCAGCAAA,-1.11
12,AGGAAGCTCCAGCGGGGTTTGAATCCCGGG,-1.19
13,CCCAAGTGCTCCTCCCCATCTCAGCCTCTC,2.14
14,AGATGTCACAGGCAAGCAAGTGACATGTTG,-1.13
15,CTGCCGCGCCACTGCGTCCAGCCACAATTA,-1.09
16,ATGAAAGGTCCTTGAAAGTAAGCAGACACT,-1.07
17,TGCAGCTGGGAGATAAGATAGCACCAGCCC,-1.14
18,CACATTCACACAATCAGTGTGTTGACATTT,1.55
19,TATCTAGGATGAGAATCCACCTGCCTGCTT,-1.08
20,ACATGACCTTTGTCCGTTCCTGCCTGGAGC,4.82
21,GTCCTCACAATAATGAGAAACGCCTGATAT,-1.16
22,AAATGGTGCAGCTGCTGAAACATTCAACTG,-1.13
23,CAGGGATCCCTGCAGCCCACAGCCCGCTGT,-0.97
24,GAGGAAAACCAGCTCAGTGGAAATTGTCCT,-0.386
25,GTAAAGGAGATTATCTAGACAAATTTGTTT,0.132

row,Sequence,binding signal (log2 normalized intensity)
1,GAAAGATTAAGAGGCTACAACCAGACTTGG,-1.18
2,AACAGAGCCCAAGGCAAAGCAGATGTGCTA,-1.11
3,TCAGGAATGTGACCCCTTTCATGAATAAAT,2.48
4,TGTGACTTTTATCTTAGGTAATAAGCCTGA,1.2
5,ACAATCTAAAAATGTTGAACTCACAAAAGT,0.91
6,CCTGAAGGGTGTTGTGGAATGTGCTTGGAC,1.94
7,GCCACTGCAGGGAGGACAGACTCTGGGAGA,-1.16
8,TGGACTGGGGACCTGGTCTGAGATATCTTT,0.741
9,AGCCCCAACCCACTGTTGCCCCTTCCAAAG,4.68
10,CAGCTGTCTATCCTTATTTATCTTCCAGCG,0.943
11,CCCACGTACATTGCACCCTCCAGGAGCCCC,2.07
12,GGCACTGCTCCCTGCCCCTACCCCCACCCT,5.65
13,AAACTCCTTCAGTTCTTATCTCGTACTTCT,1.16
14,TACATTCCAAATACGATAATGTCAAACATC,-0.408
15,GAGGACAACCAGAGGTCACTTTTATCACCA,1.2
16,ACCAAAGGAGTCCTGGCTGACAGATACCGT,-1.1
17,AGGGTTACAAACTTCAAGGTCCATTTGAGG,0.52
18,CTTTAGCACCTTCATCCAAAGATGACCTTT,7.62
19,CATTATTAGCAGCAGGTTATCTAATGGAGA,0.864
20,GAACCTGCCCTCTGTCCCATGGTGTACAAG,1.26
21,TAGGCAAAAGACAGTGATTGTCACAAGACT,-1.12
22,ACACTTGCCCTTTGCCCTCACTGGTAGAAG,5.09
23,CCTGCAAGGACAAAGGTCATGTTTTCAAAC,5.78
24,TTTTATGTTAAGATCAAACAGGGACAGATG,0.58
25,TCTGACCTTTGTCTCCAGGCAAACTACAGT,3.31

row,Sequence,binding signal (log2 normalized intensity)
1,CTCTGGGACCGCAGGGGGCTCCCGGACCCT,0.781
2,TTATGTACTTAGTGTTTTATGTGTATTTAC,1.94
3,ATGAAAGAGACTAGTATGTAAATAAGAGCT,-1.23
4,CTAAGGGGGAAAGTCCACGTGAGAGGGTCG,2.39
5,TGGCTGAGAGGGATAAAAGGGGAAAAGGTC,2.07
6,CACTCTGGTGCCCTCTGAGTGTTTGACCTT,5.15
7,GGAAGGTGGGGGAGGAGACAGCTACGGAAT,-1.2
8,CTCCCGGGCGCTGTCCGCCGCCTCGTGGTG,-1.17
9,AAGACCTCGGCCTCATGGGCGATCCCGAAA,-1.05
10,CCTCTGCAGCCGCCCTTTTGCCTCCGCTCC,1.04
11,CACTAGGAGGAGGTCAAAGTGCAACTACAA,5.7
12,ATAAAATAGCTGCCTGTGTGTTCTGCTATT,1.12
13,TACAGTGCCATTTATCAGTGATTTCTCTTC,0.503
14,ACAGACTTCACACTAGAAGACTCATCTCAG,-1.12
15,ACCCTGTTGGTTTCTGGGATTTGTACAAGT,1.91
16,ACCTGATGTTTGGACAGTGTGACTCATCAA,1.29
17,AGACCCTTATCAGTAGTTCTCCTTTCTGCC,1.39
18,TTAAAGGCAAAGTCCAGAACCTGGAACCTA,2.15
19,ACCCATTATGGCCACTGTGTGTGTGTGTGT,3.08
20,CCTGTCTCATCCTGTGACCAAGAATGCCTA,-0.866
21,TCCTAAGGCCTTCAACTGATAAGAAGGGGC,-1.04
22,CACCGTAAATCACATTGTTAGCAGAAACCA,-0.708
23,GTGAGAAACATCCTGCCTAACCACCTGACC,-1.11
24,AAAGGGGCTAGGGCAAAGATCAAACATACA,1.04
25,ATAAGCCACGAGCCTGCCTGCTCCTCCTCG,-1.21

row,Sequence,binding signal (log2 normalized intensity)
1,TCTTATCTCACTGGATGTGTACCTCATCTT,1.24
2,AGAACATTGCAGTGGCTCAGAGGTTATCTC,0.737
3,GACAAGGCTCTGGTGGGGAATGCTAGGACT,-1.04
4,AGCAAAGTTCAGAGAGGAATCGGCAGTTTG,-1.07
5,TAGACCTAGATAAGGGAGATGAAAGGGGCC,-1.22
6,TGCTGGTTTACAACATTCCTTTGTATTTTT,1.51
7,GTGTGTGGTGTGTGTGTGTGTGTTTTGTGC,3.05
8,GGGGCATCCCTCGTAGGCAGGGCCAGATAA,-1.18
9,CTGATTCTGATTAGGTGGATTCGCCCAGCA,-1.14
10,AGTGGCTCCTAGAATTATCCCACCCCCAAT,4.42
11,AAAAACAGGTTCTGCAACACTTTCTAAGGA,-1.1
12,TGGAATGTCAAGATTGAGACATTCATGGCT,-0.938
13,CATTCAACTGACACTTGTTTGAATTGTGAT,1.87
14,AAAGGTCATCGCACCGGCAGGGGAGAACTT,0.284
15,TTGCTCAACCTGGACCTCATTAATAGGGCA,0.548
16,TTTCTGGGACCAAGGGTCAGTTCATTAAAA,2.22
17,AGTGAGGGACAAGGCTGTCCCCCATCTCAT,1.44
18,GACTCAGAAAAATATGTGGACTTCAAAGGT,1.29
19,AAGCTTGCTGATTACATAGGAGGCTGCCTC,-1.12
20,CCTCCATGGCCTGGGGCCCTACCTGCACTT,-1.04
21,GCATAGGAAGTGGGGAAGAAGTGTTCCCCT,0.808
22,CCGAATGTCCAGACTGTGCATACCAAGAAC,-1.2
23,ACATTCCCTTCTTAGGGCAACATTCTTATC,1.29
24,TCCTTATCTGTAGAAGGCAAAGCTTGGCCA,-0.441
25,ATTTGGAAAACATCATTCCGTGACTGAGCT,-1.22

row,Sequence,binding signal (log2 normalized intensity)
1,CGATAAGGAGGAAGGACACTTAGAGATAAG,-1.21
2,CTGGCCTCTGTGAAGTGGAGATAATAGGAG,-0.433
3,AAAAAAAGAACACAGTGTAGAAGGCAAGGG,-1.03
4,TCATGAGTAGAGAGCAATCATGGGCCCACA,-1.15
5,AGAATGTGGCCATTTTACTTGTCAAGGATC,0.509
6,TACAGGCGTGAGCCACCGCGCCCCGCCCCC,5.74
7,CCTTTGGGAGCAGTGGGCATATCTTTTTAT,1.56
8,ACTGAAAGGGAACCCTAATCCACATGCTAT,-1.11
9,ATCCCCGCCCCCAACGGGCCACGCCCTGCA,4.37
10,GCCTGGACCTTGGAATGTCAAGATTGAGAC,1.67
11,CACTCATCCCTTGCACTGCTCAGGGTGGGG,-0.0659
12,TAACCATGGGGGCTCAGGGCCTCTCTTCTT,-1.13
13,CTTCCATATAACCCTTGAACCTTCTTCTTG,3.99
14,TAGCTCATTAAGCTTAGCGTTATCAAACCA,-0.905
15,CCTCTCCTCCATGGCCTGGGGCCCTACCTG,-1.13
16,CAAGTATTTTCAGCCACCTTTATCTGATCA,1.49
17,AGAAAGCAGCCATAGACGATGTGTAAACAA,-1.01
18,CGTTCCCCGAGCGAGCTCCGTGCGGGAGGC,-0.646
19,GCAAAGGTCACTCTTGCTATGCCTTAGCAA,-1.1
20,GTGCAAAGGTTAAAATGCCCTCACAGGTTC,1.61
21,ATATAATCATTCATGGGCCAAAGTTTGTTT,1.7
22,GTATGGTAAGGTCGACCTTTAAACGTTTGC,4.9
23,TTCATTGCACTTTGCCCTCTCTTCAGCACC,5.49
24,AAAGTTCAGTTGCAAAGAACAGAATCCAGT,-1.05
25,CAGCAGCGGATCCAACCTGTTCTTTTGAGC,-0.214

row,Sequence,binding signal (log2 normalized intensity)
1,TATTAGGCAAAAGAGATAGCGAGAAGGCAG,-0.84
2,TTTGTTCACCCACCAGAGGGAACGCCCGAC,-1.16
3,ATTGGGTCCACACATTCCTAGACCTTTGAC,3.26
4,CCAGTGGAGTAGGCTTTAGATAAGGTATGT,1.29
5,CGGTCAAGTCAGAGGCCCAGCAAGGAGAAA,-1.05
6,AGATACAGGTCAGACCCTGGAATTCCAGAA,-0.969
7,CATGGCAGATGTCTGTGTTCACATAGGGGC,1.29
8,AAAGAGCTTTTGGGCAGAGACTATGTGGTT,1.58
9,AGAGCAGTTCAGCTCTCTTTGCTCTCCTCC,-1.11
10,AAGTGTGGTCAAGGGTCAGTTTCTGAGAGT,3.65
11,GAAGTGTTTGTCAAGCTCAATGCAACCAGT,-1.07
12,ATCCCAATTCACTGACACAAATTATGTCAG,-1.07
13,TGTACCTCTGGTGATTACCAGTTATTACGG,0.671
14,CAACACCCAGGCTTATCTCACTCCAAAGGC,-1.25
15,CTCTCCCGCCTCTTGGCCTCCCCCTTCTGA,4.42
16,CCTCTGCACCCCACCAAGGACTGGACCACC,2.34
17,AATCTACAAATGTTTCAACATGACAGATAA,-0.659
18,ATTCCACTGACTGCTTTATCAGTGTAGTTT,1.43
19,CTTGTAATTCAAGACTATAGACTGTGATAA,-0.305
20,TCTTTCTCAAGCCAGACTGGTTTTTCTTGG,1.53
